# Assay results published in the supplement of paper PMC8728848.
# The list shows a part of the results.
# B1: UEA-I (Ulex europaeus), P22972 (protein)
# chain: SDDLSFKFKNFSQNGKDLSFQGDASVIETGVLQLNKVGNNLPDETGGIARYIAPIHIWNCNTGEVASFITSFSFFMETSANPKAATDGLTFFLAPPDSPLRRAGGYFGLFEDTKDNDSSYQTVAVEFDTIGSPVNFDDPGFPHIGIDVNRVKSINAERWNKRYGLNNVANVEIIYEASSKTLTASLTYPSDQTSISVTSIVDLKEILPEWVSVGFSGGTYIGRQATHEVLNWYFTSNLINTNS
# Experiments:
# Assay in all cases: glycan array binding signal (z-score within array); higher = stronger binding
# Settings in all cases: glycan notation: IUPAC condensed, linker removed
# Fuc(a1-2)Gal = molecular target: Fuc(a1-2)Gal
# Outline: (§1)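 The binding signal is a Z-score computed within each array and averaged over linkers. Arrays of the same protein sequence at different concentrations or buffers were also averaged together. Data originate from 3228 arrays in the Consortium for Functional Glycomics database, kept only where the protein sequence was available.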
# Fuc(a1-2)Gal(b1-3)GalNAc = molecular target: Fuc(a1-2)Gal(b1-3)GalNAc
# Outline: as §1
# [1] = molecular target: Fuc(a1-2)Gal(b1-3)GalNAc(a1-3)[Fuc(a1-2)]Gal(b1-4)Glc
# Outline: as §1
# [2] = molecular target: Fuc(a1-2)Gal(b1-3)GalNAc(a1-3)[Fuc(a1-2)]Gal(b1-4)GlcNAc
# Outline: as §1
# [3] = molecular target: Fuc(a1-2)Gal(b1-3)GalNAc(b1-3)Gal
# Outline: as §1
# [4] = molecular target: Fuc(a1-2)Gal(b1-3)GalNAc(b1-3)Gal(a1-4)Gal(b1-4)Glc
# Outline: as §1
# [5] = molecular target: Fuc(a1-2)Gal(b1-3)GalNAc(b1-3)Gal(b1-4)Glc
# Outline: as §1
# [6] = molecular target: Fuc(a1-2)Gal(b1-3)GalNAc(b1-4)[Neu5Ac(a2-3)]Gal(b1-4)Glc
# Outline: as §1
# Fuc(a1-2)Gal(b1-3)GlcNAc = molecular target: Fuc(a1-2)Gal(b1-3)GlcNAc
# Outline: as §1
# [7] = molecular target: Fuc(a1-2)Gal(b1-3)GlcNAc(b1-2)Man(a1-3)[Fuc(a1-2)Gal(b1-3)GlcNAc(b1-2)Man(a1-6)]Man(b1-4)GlcNAc(b1-4)GlcNAc
# Outline: as §1
# [8] = molecular target: Fuc(a1-2)Gal(b1-3)GlcNAc(b1-2)Man(a1-3)[Fuc(a1-2)Gal(b1-3)GlcNAc(b1-2)Man(a1-6)]Man(b1-4)GlcNAc(b1-4)[Fuc(a1-6)]GlcNAc
# Outline: as §1
# [9] = molecular target: Fuc(a1-2)Gal(b1-3)GlcNAc(b1-3)Gal(b1-4)Glc
# Outline: as §1
# [10] = molecular target: Fuc(a1-2)Gal(b1-3)GlcNAc(b1-3)GalNAc
# Outline: as §1
# [11] = molecular target: Fuc(a1-2)Gal(b1-3)GlcNAc(b1-3)[Fuc(a1-2)Gal(b1-3)GlcNAc(b1-6)]GalNAc
# Outline: as §1
# [12] = molecular target: Fuc(a1-2)Gal(b1-3)GlcNAc(b1-3)[Gal(b1-4)GlcNAc(b1-6)]Gal(b1-4)Glc
# Outline: as §1
# [13] = molecular target: Fuc(a1-2)Gal(b1-3)GlcNAc(b1-3)[Neu5Ac(a2-6)Gal(b1-4)GlcNAc(b1-6)]Gal(b1-4)Glc
# Outline: as §1
# [14] = molecular target: Fuc(a1-2)Gal(b1-3)GlcNAc6S
# Outline: as §1
# [15] = molecular target: Fuc(a1-2)Gal(b1-3)[Fuc(a1-4)]GlcNAc
# Outline: as §1
# [16] = molecular target: Fuc(a1-2)Gal(b1-3)[Fuc(a1-4)]GlcNAc(b1-2)Man(a1-3)[Fuc(a1-2)Gal(b1-3)[Fuc(a1-4)]GlcNAc(b1-2)Man(a1-3)]Man(b1-4)GlcNAc(b1-4)GlcNAc
# Outline: as §1
# [17] = molecular target: Fuc(a1-2)Gal(b1-3)[Fuc(a1-4)]GlcNAc(b1-2)Man(a1-3)[Fuc(a1-2)Gal(b1-3)[Fuc(a1-4)]GlcNAc(b1-2)Man(a1-6)]Man(b1-4)GlcNAc(b1-4)[Fuc(a1-6)]GlcNAc(b1-4)[Fuc(a1-6)]GlcNAc
# Outline: as §1
# [18] = molecular target: Fuc(a1-2)Gal(b1-3)[Fuc(a1-4)]GlcNAc(b1-3)[Fuc(a1-3)[Gal(b1-4)]GlcNAc(b1-6)]Gal(b1-4)Glc
# Outline: as §1
# [19] = molecular target: Fuc(a1-2)Gal(b1-3)[Fuc(a1-4)]GlcNAc(b1-3)[Gal(b1-4)GlcNAc(b1-6)]Gal(b1-4)Glc
# Outline: as §1
# [20] = molecular target: Fuc(a1-2)Gal(b1-4)Fuc(a1-3)]GlcNAc(b1-2)Man(a1-3)[Fuc(a1-2)Gal(b1-4)[Fuc(a1-3)]GlcNAc(b1-2)Man(a1-6)]Man(b1-4)GlcNAc(b1-4)GlcNAc
# Outline: as §1
# Fuc(a1-2)Gal(b1-4)Glc = molecular target: Fuc(a1-2)Gal(b1-4)Glc
# Outline: as §1
# Fuc(a1-2)Gal(b1-4)Glc6S = molecular target: Fuc(a1-2)Gal(b1-4)Glc6S
# Outline: as §1
# Fuc(a1-2)Gal(b1-4)GlcNAc = molecular target: Fuc(a1-2)Gal(b1-4)GlcNAc
# Outline: as §1
# [21] = molecular target: Fuc(a1-2)Gal(b1-4)GlcNAc(b1-2)Man
# Outline: as §1
# [22] = molecular target: Fuc(a1-2)Gal(b1-4)GlcNAc(b1-2)Man(a1-3)[Fuc(a1-2)Gal(b1-4)GlcNAc(b1-2)Man(a1-6)]Man(b1-4)GlcNAc(b1-4)GlcNAc
# Outline: as §1
# [23] = molecular target: Fuc(a1-2)Gal(b1-4)GlcNAc(b1-2)Man(a1-3)[Fuc(a1-2)Gal(b1-4)GlcNAc(b1-2)Man(a1-6)]Man(b1-4)GlcNAc(b1-4)[Fuc(a1-6)]GlcNAc
# Outline: as §1
# [24] = molecular target: Fuc(a1-2)Gal(b1-4)GlcNAc(b1-2)[Fuc(a1-2)Gal(b1-4)GlcNAc(b1-4)]Man(a1-3)[Fuc(a1-2)Gal(b1-4)GlcNAc(b1-2)Man(a1-6)]Man(b1-4)GlcNAc(b1-4)GlcNAc
# Outline: as §1
# [25] = molecular target: Fuc(a1-2)Gal(b1-4)GlcNAc(b1-3)Gal(b1-4)GlcNAc
# Outline: as §1
# [26] = molecular target: Fuc(a1-2)Gal(b1-4)GlcNAc(b1-3)Gal(b1-4)GlcNAc(b1-2)Man(a1-3)[Fuc(a1-2)Gal(b1-4)GlcNAc(b1-3)Gal(b1-4)GlcNAc(b1-2)Man(a1-6)]Man(b1-4)GlcNAc(b1-4)GlcNAc
# Outline: as §1
# [27] = molecular target: Fuc(a1-2)Gal(b1-4)GlcNAc(b1-3)Gal(b1-4)GlcNAc(b1-3)Gal(b1-4)GlcNAc
# Outline: as §1
# [28] = molecular target: Fuc(a1-2)Gal(b1-4)GlcNAc(b1-3)GalNAc
# Outline: as §1
# [29] = molecular target: Fuc(a1-2)Gal(b1-4)GlcNAc(b1-3)[Fuc(a1-2)Gal(b1-4)GlcNAc(b1-6)]GalNAc
# Outline: as §1
# [30] = molecular target: Fuc(a1-2)Gal(b1-4)GlcNAc(b1-3)[Fuc(a1-3)[Gal(b1-4)]GlcNAc(b1-6)]Gal(b1-4)Glc
# Outline: as §1
# [31] = molecular target: Fuc(a1-2)Gal(b1-4)GlcNAc(b1-6)GalNAc
# Outline: as §1
# [32] = molecular target: Fuc(a1-2)Gal(b1-4)GlcNAc6S
# Outline: as §1
# [33] = molecular target: Fuc(a1-2)Gal(b1-4)[Fuc(a1-3)]GalNAc(b1-3)Gal(b1-4)[Fuc(a1-3)]GlcNAc
# Outline: as §1
# [34] = molecular target: Fuc(a1-2)Gal(b1-4)[Fuc(a1-3)]GalNAc(b1-3)Gal(b1-4)[Fuc(a1-3)]GlcNAc(b1-3)Gal(b1-4)[Fuc(a1-3)]GalNAc
# Outline: as §1
# [35] = molecular target: Fuc(a1-2)Gal(b1-4)[Fuc(a1-3)]GlcNAc
# Outline: as §1
# [36] = molecular target: Fuc(a1-2)Gal(b1-4)[Fuc(a1-3)]GlcNAc(b1-2)Man(a1-3)[Fuc(a1-2)Gal(b1-4)[Fuc(a1-3)]GlcNAc(b1-2)Man(a1-6)]Man(b1-4)GlcNAc(b1-4)[Fuc(a1-6)]GlcNAc
# Outline: as §1
# [37] = molecular target: Fuc(a1-2)Gal(b1-4)[Fuc(a1-3)]GlcNAc(b1-2)[Fuc(a1-2)Gal(b1-4)[Fuc(a1-3)]GlcNAc(b1-4)]Man(a1-3)[Fuc(a1-2)Gal(b1-4)[Fuc(a1-3)]GlcNAc(b1-2)Man(a1-6)]Man(b1-4)GlcNAc(b1-4)GlcNAc
# Outline: as §1
# [38] = molecular target: Fuc(a1-2)Gal(b1-4)[Fuc(a1-3)]GlcNAc(b1-3)Gal(b1-4)[Fuc(a1-3)]GlcNAc
# Outline: as §1
# [39] = molecular target: Fuc(a1-2)Gal(b1-4)[Fuc(a1-3)]GlcNAc(b1-3)Gal(b1-4)[Fuc(a1-3)]GlcNAc(b1-3)Gal(b1-4)[Fuc(a1-3)]GlcNAc
# Outline: as §1
binder,measurement,setting,value
B1,glycan array binding signal (z-score),Fuc(a1-2)Gal,1.09
same,glycan array binding signal (z-score),Fuc(a1-2)Gal(b1-3)GalNAc,-0.304
same,glycan array binding signal (z-score),[1],-0.168
same,glycan array binding signal (z-score),[2],-0.189
same,glycan array binding signal (z-score),[3],-0.118
same,glycan array binding signal (z-score),[4],-0.224
same,glycan array binding signal (z-score),[5],-0.217
same,glycan array binding signal (z-score),[6],-0.215
same,glycan array binding signal (z-score),Fuc(a1-2)Gal(b1-3)GlcNAc,-0.129
same,glycan array binding signal (z-score),[7],-0.085
same,glycan array binding signal (z-score),[8],-0.153
same,glycan array binding signal (z-score),[9],-0.217
same,glycan array binding signal (z-score),[10],-0.186
same,glycan array binding signal (z-score),[11],-0.161
same,glycan array binding signal (z-score),[12],-0.092
same,glycan array binding signal (z-score),[13],-0.101
same,glycan array binding signal (z-score),[14],-0.071
same,glycan array binding signal (z-score),[15],-0.22
same,glycan array binding signal (z-score),[16],-0.072
same,glycan array binding signal (z-score),[17],-0.186
same,glycan array binding signal (z-score),[18],-0.125
same,glycan array binding signal (z-score),[19],-0.187
same,glycan array binding signal (z-score),[20],-0.131
same,glycan array binding signal (z-score),Fuc(a1-2)Gal(b1-4)Glc,4.65
same,glycan array binding signal (z-score),Fuc(a1-2)Gal(b1-4)Glc6S,8.87
same,glycan array binding signal (z-score),Fuc(a1-2)Gal(b1-4)GlcNAc,5.04
same,glycan array binding signal (z-score),[21],-0.188
same,glycan array binding signal (z-score),[22],1.85
same,glycan array binding signal (z-score),[23],0.643
same,glycan array binding signal (z-score),[24],1.41
same,glycan array binding signal (z-score),[25],1.57
same,glycan array binding signal (z-score),[26],2.76
same,glycan array binding signal (z-score),[27],1.8
same,glycan array binding signal (z-score),[28],-0.149
same,glycan array binding signal (z-score),[29],5.44
same,glycan array binding signal (z-score),[30],-0.138
same,glycan array binding signal (z-score),[31],4.28
same,glycan array binding signal (z-score),[32],5.67
same,glycan array binding signal (z-score),[33],-0.611
same,glycan array binding signal (z-score),[34],-0.666
same,glycan array binding signal (z-score),[35],3.48
same,glycan array binding signal (z-score),[36],-0.035
same,glycan array binding signal (z-score),[37],-0.118
same,glycan array binding signal (z-score),[38],-0.025
same,glycan array binding signal (z-score),[39],-0.047
